# Reference: the supplement of paper PMC8728848
# The list shows a part of the results.
# B1: BC2L-A (Burkholderia cenocepacia), Q1BKJ8_BURCA (protein)
# chain: ADSQTSSNRAGEFSIPPNTDFRAIFFANAAEQQHIKLFIGDSQEPAAYHKLTTRDGPREATLNSGNGKIRFEVSVNGKPSATDARLAPINGKKSDGSPFTVNFGIVVSEDGHDSDYNDGIVVLQWPIG
# Legend:
# Test in all cases: glycan array binding signal (z-score within array); higher = stronger binding
# Settings in all cases: glycan notation: IUPAC condensed, linker removed
# Fuc(a1-2)Gal = molecular target: Fuc(a1-2)Gal
# Procedure, shortened: (§1)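 Arrays were curated from the Consortium for Functional Glycomics database, 3228 in total, and kept only where the protein sequence was available. Binding is expressed as a within-array Z-score. This score was averaged across arrays of the same protein sequence at different concentrations or buffers and across linkers, and negative values can be read as non-binding.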
# Fuc(a1-2)Gal(b1-3)GalNAc = molecular target: Fuc(a1-2)Gal(b1-3)GalNAc
# Procedure, shortened: as §1
# [1] = molecular target: Fuc(a1-2)Gal(b1-3)GalNAc(a1-3)[Fuc(a1-2)]Gal(b1-4)Glc
# Procedure, shortened: as §1
# [2] = molecular target: Fuc(a1-2)Gal(b1-3)GalNAc(a1-3)[Fuc(a1-2)]Gal(b1-4)GlcNAc
# Procedure, shortened: as §1
# [3] = molecular target: Fuc(a1-2)Gal(b1-3)GalNAc(b1-3)Gal
# Procedure, shortened: as §1
# [4] = molecular target: Fuc(a1-2)Gal(b1-3)GalNAc(b1-3)Gal(a1-4)Gal(b1-4)Glc
# Procedure, shortened: as §1
# [5] = molecular target: Fuc(a1-2)Gal(b1-3)GalNAc(b1-4)[Neu5Ac(a2-3)]Gal(b1-4)Glc
# Procedure, shortened: as §1
# Fuc(a1-2)Gal(b1-3)GlcNAc = molecular target: Fuc(a1-2)Gal(b1-3)GlcNAc
# Procedure, shortened: as §1
# [6] = molecular target: Fuc(a1-2)Gal(b1-3)GlcNAc(b1-2)Man(a1-3)[Fuc(a1-2)Gal(b1-3)GlcNAc(b1-2)Man(a1-6)]Man(b1-4)GlcNAc(b1-4)GlcNAc
# Procedure, shortened: as §1
# [7] = molecular target: Fuc(a1-2)Gal(b1-3)GlcNAc(b1-2)Man(a1-3)[Fuc(a1-2)Gal(b1-3)GlcNAc(b1-2)Man(a1-6)]Man(b1-4)GlcNAc(b1-4)[Fuc(a1-6)]GlcNAc
# Procedure, shortened: as §1
# [8] = molecular target: Fuc(a1-2)Gal(b1-3)GlcNAc(b1-3)Gal(b1-4)Glc
# Procedure, shortened: as §1
# [9] = molecular target: Fuc(a1-2)Gal(b1-3)GlcNAc(b1-3)GalNAc
# Procedure, shortened: as §1
# [10] = molecular target: Fuc(a1-2)Gal(b1-3)GlcNAc(b1-3)[Fuc(a1-3)[Gal(b1-4)]GlcNAc(b1-6)]Gal(b1-4)Glc
# Procedure, shortened: as §1
# [11] = molecular target: Fuc(a1-2)Gal(b1-3)GlcNAc(b1-3)[Gal(b1-4)GlcNAc(b1-6)]Gal(b1-4)Glc
# Procedure, shortened: as §1
# [12] = molecular target: Fuc(a1-2)Gal(b1-3)GlcNAc(b1-3)[Gal(b1-4)[Fuc(a1-3)]GlcNAc(b1-6)]Gal(b1-4)Glc
# Procedure, shortened: as §1
# [13] = molecular target: Fuc(a1-2)Gal(b1-3)GlcNAc(b1-3)[Neu5Ac(a2-6)Gal(b1-4)GlcNAc(b1-6)]Gal(b1-4)Glc
# Procedure, shortened: as §1
# [14] = molecular target: Fuc(a1-2)Gal(b1-3)[Fuc(a1-4)]GlcNAc
# Procedure, shortened: as §1
# [15] = molecular target: Fuc(a1-2)Gal(b1-3)[Fuc(a1-4)]GlcNAc(b1-2)Man(a1-3)[Fuc(a1-2)Gal(b1-3)[Fuc(a1-4)]GlcNAc(b1-2)Man(a1-6)]Man(b1-4)GlcNAc(b1-4)GlcNAc
# Procedure, shortened: as §1
# [16] = molecular target: Fuc(a1-2)Gal(b1-3)[Fuc(a1-4)]GlcNAc(b1-3)[Fuc(a1-3)[Gal(b1-4)]GlcNAc(b1-6)]Gal(b1-4)Glc
# Procedure, shortened: as §1
# [17] = molecular target: Fuc(a1-2)Gal(b1-3)[Fuc(a1-4)]GlcNAc(b1-3)[Gal(b1-4)GlcNAc(b1-6)]Gal(b1-4)Glc
# Procedure, shortened: as §1
# Fuc(a1-2)Gal(b1-4)Glc = molecular target: Fuc(a1-2)Gal(b1-4)Glc
# Procedure, shortened: as §1
# Fuc(a1-2)Gal(b1-4)Glc6S = molecular target: Fuc(a1-2)Gal(b1-4)Glc6S
# Procedure, shortened: as §1
# Fuc(a1-2)Gal(b1-4)GlcNAc = molecular target: Fuc(a1-2)Gal(b1-4)GlcNAc
# Procedure, shortened: as §1
# [18] = molecular target: Fuc(a1-2)Gal(b1-4)GlcNAc(b1-2)Man(a1-3)[Fuc(a1-2)Gal(b1-4)GlcNAc(b1-2)Man(a1-6)]Man(b1-4)GlcNAc(b1-4)GlcNAc
# Procedure, shortened: as §1
# [19] = molecular target: Fuc(a1-2)Gal(b1-4)GlcNAc(b1-2)Man(a1-3)[Fuc(a1-2)Gal(b1-4)GlcNAc(b1-2)Man(a1-6)]Man(b1-4)GlcNAc(b1-4)[Fuc(a1-6)]GlcNAc
# Procedure, shortened: as §1
# [20] = molecular target: Fuc(a1-2)Gal(b1-4)GlcNAc(b1-2)[Fuc(a1-2)Gal(b1-4)GlcNAc(b1-4)]Man(a1-3)[Fuc(a1-2)Gal(b1-4)GlcNAc(b1-2)Man(a1-6)]Man(b1-4)GlcNAc(b1-4)GlcNAc
# Procedure, shortened: as §1
# [21] = molecular target: Fuc(a1-2)Gal(b1-4)GlcNAc(b1-3)Gal(b1-4)GlcNAc
# Procedure, shortened: as §1
# [22] = molecular target: Fuc(a1-2)Gal(b1-4)GlcNAc(b1-3)Gal(b1-4)GlcNAc(b1-3)Gal(b1-4)GlcNAc
# Procedure, shortened: as §1
# [23] = molecular target: Fuc(a1-2)Gal(b1-4)GlcNAc(b1-3)GalNAc
# Procedure, shortened: as §1
# [24] = molecular target: Fuc(a1-2)Gal(b1-4)GlcNAc(b1-3)[Fuc(a1-2)Gal(b1-4)GlcNAc(b1-6)]GalNAc
# Procedure, shortened: as §1
binder,measurement,setting,value
B1,glycan array binding signal (z-score),Fuc(a1-2)Gal,-0.196
same,glycan array binding signal (z-score),Fuc(a1-2)Gal(b1-3)GalNAc,0.042
same,glycan array binding signal (z-score),[1],-0.219
same,glycan array binding signal (z-score),[2],-0.22
same,glycan array binding signal (z-score),[3],-0.268
same,glycan array binding signal (z-score),[4],0.286
same,glycan array binding signal (z-score),[5],0.357
same,glycan array binding signal (z-score),Fuc(a1-2)Gal(b1-3)GlcNAc,-0.204
same,glycan array binding signal (z-score),[6],0.726
same,glycan array binding signal (z-score),[7],0.386
same,glycan array binding signal (z-score),[8],-0.207
same,glycan array binding signal (z-score),[9],-0.215
same,glycan array binding signal (z-score),[10],-0.215
same,glycan array binding signal (z-score),[11],-0.217
same,glycan array binding signal (z-score),[12],-0.063
same,glycan array binding signal (z-score),[13],-0.219
same,glycan array binding signal (z-score),[14],-0.226
same,glycan array binding signal (z-score),[15],-0.074
same,glycan array binding signal (z-score),[16],-0.22
same,glycan array binding signal (z-score),[17],-0.167
same,glycan array binding signal (z-score),Fuc(a1-2)Gal(b1-4)Glc,-0.11
same,glycan array binding signal (z-score),Fuc(a1-2)Gal(b1-4)Glc6S,-0.139
same,glycan array binding signal (z-score),Fuc(a1-2)Gal(b1-4)GlcNAc,0.167
same,glycan array binding signal (z-score),[18],0.306
same,glycan array binding signal (z-score),[19],0.226
same,glycan array binding signal (z-score),[20],-0.1
same,glycan array binding signal (z-score),[21],0.237
same,glycan array binding signal (z-score),[22],0.018
same,glycan array binding signal (z-score),[23],-0.217
same,glycan array binding signal (z-score),[24],-0.205
